Test results reported in the supplement of paper PMC11417369.
Some of the results follow.

tested on: PfAP2-HC AP2 domain (GST-tagged); test: gcPBM binding intensity (ln(normalized median fluorescence intensity)); higher = stronger DNA binding
Outline: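 Plasmodium falciparum DNA-binding domains carrying a GST tag were expressed in E. coli and applied for 1 h, at about 25 μg on average, to an Agilent 4 × 180k array. The array held primer-extended double-stranded 36-bp intergenic genomic probes together with negative controls, and binding took place in 1× PBS with 1% milk, 0.2 mg/ml BSA, 0.5% salmon testes DNA and 0.03% Triton X-100. An Alexa488 anti-GST antibody detected bound protein, and the array was scanned at 488 nm. Binding intensity is taken as the highest Masliner-normalised natural-log median intensity across replicate spots of either probe orientation.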

Sequence | gcPBM binding intensity (ln)
TTTTACATATACATGTGTACATAACAAAGAATGTTT [XGTACX_site2406] | 9.68
CGCATGTATTTTGTGTGTACTAATTATAATCAACTT [XGTACX_site4709] | 10
TAATATTGTATTTATGTACACACATTTTTGGAATAT [CACACA_site8371] | 9.84
AGTGTATTAATTCTCACACACTAAGAAAAAAAAAAA [CACACA_site6007] | 9.78
TTTTTTAATAAATGGTGTACATATTTTTTTTATACT [XGTACX_site8584] | 9.66
ATTCATAATATTATAACACACGCTTATTACATAAAG [CACACA_site980] | 9.61
ATATATATATATATGTGTACATATGTATATATATCT [XGTACX_site2930] | 9.9
CCCATGTAATGAACATGTACATAATAATTTATAAAT [XGTACX_site8687] | 9.45
AGATGGAGAAAGTTATGTACACATATATAAATATGT [XGTACX_site6150] | 9.68
TATATACATATGTGATGTACATTTTTTGTAATATAA [XGTACX_site6985] | 9.49
TAACACATATATTGTTGTACATTCAAACTGAAAAAT [XGTACX_site5565] | 9.61
TTTTTTTTATTAAAAAGTACTAAACAAATTATATAT [XGTACX_site121] | 9.36
CCATAACTCATATGCACACATAAATATTACATATAT [CACACA_site3821] | 10.1
TTTTAAAAAGAAAAAAATAACATACATATATATATA [CACACA_negctrl_site240] | 9.38
ATGTCTACAGTTTTTGCACACATATAAATAAAAAAA [CACACA_site3600] | 9.77
ATTTTTTTTTTTTTTTTTTTTGAGAAGAACTTTTTC [CACACA_negctrl_site1019] | 9.26
AAACATCATAAATATACACACATATTTATATTTATA [CACACA_site6437] | 9.79
TCAAACGGTTAAATATGTACATATATATATATATAT [XGTACX_site2339] | 9.74
AAAAAAAAAAGACACACACACATATAAATATAAATA [CACACA_site6899] | 11.5
ACTCATAAAAATAGATGTACTTTAATAATTTGATTT [XGTACX_site8763] | 9.48
GTACATACATAAAACACACACATATAGATTTATATA [CACACA_site6945] | 10.4
AGTGTGTGTAATAAAGTGCATTAAAAATGACACGTA | 10.4
ACCCACTTTTGAGGTGTGCACAATAAATTGGACATT | 9.67
ATATATATTTAAACTACACACGCATATCTTAGAAAT [CACACA_site8348] | 10.1
TAAGAGATATTTTATTAAATGTTTTATGAATCATGT [TGCATGCA_negctrl_site264] | 9.35
